In the supplement of paper PMC9446081 one finds relative growth data, which are given here for 62 molecules.

Out of some 39,000 compounds screened, about 220 (0.56%) showed activity. The list shows a part of the results.
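Note: static incubation at 37 °C against the wild-type strain, values averaged over two biological replicates.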

The test system of this assay is Escherichia coli K-12 BW25113. Description: relative growth (OD600 normalised to plate interquartile mean) (fraction); higher = less growth inhibition, active = 0.2 or less. Conditions: 50 µM; LB; incubation time: overnight (16-24 h).
For the molecule `C[C@H](CO)N1C[C@H](C)[C@H](CN(C)C(=O)Nc2ccc(F)cc2)Oc2ncc(Br)cc2C1=O`, the relative growth is inactive: 0.974.
Consider `C[C@H](CO)N1C[C@H](C)[C@@H](CN(C)C(=O)NC2CCCCC2)Oc2ccc(NC(=O)CCCN(C)C)cc2C1=O`, for which the relative growth is inactive: 1.01.
The result for `Cc1noc(C)c1NC(=O)N(C)C[C@@H]1Oc2c(NS(=O)(=O)c3ccccc3)cccc2C(=O)N([C@H](C)CO)C[C@@H]1C` reads inactive: 0.987; that for `Cc1noc(C)c1S(=O)(=O)N(C)C[C@H]1Oc2ccc(NC(=O)CCCN(C)C)cc2C(=O)N([C@H](C)CO)C[C@@H]1C`, inactive: 0.989; that for `O=C(C[C@@H]1C[C@H]2c3cc(NC(=O)C4CCOCC4)ccc3O[C@H]2[C@@H](CO)O1)NCc1ccc2c(c1)OCO2`, inactive: 1.02.
The result for `COc1cc(CN2CCC(C(=O)N[C@@H](c3ccc(-c4ccccc4)cc3)c3cnccn3)CC2)cc(OC)c1` reads inactive: 1.02.
The result for `C[C@H](CO)N1C[C@H](C)[C@@H](CN(C)Cc2ccc3c(c2)OCO3)OCCCC[C@H](C)Oc2ccc(NC(=O)Nc3ccc(F)cc3)cc2C1=O` reads inactive: 1.03.
As to `Cc1oc(C(C)(C)C)cc1C(=O)Nc1ccc(C(C)C)cc1`, the relative growth was inactive: 1.
The same measure for `C[C@H]1CN([C@@H](C)CO)S(=O)(=O)c2ccc(C#CCN(C)C)cc2O[C@@H]1CN(C)Cc1ccncc1`: inactive: 1.02.
The same measure for `C[C@@H]1CN([C@H](C)CO)C(=O)c2cc(NC(=O)Cc3ccccc3)ccc2O[C@H]1CN(C)S(=O)(=O)c1cccs1`: inactive: 0.989.
Regarding `C[C@@H]1CCCCO[C@@H](CN(C)S(=O)(=O)c2ccccc2)[C@@H](C)CN([C@H](C)CO)C(=O)c2cc(NC(=O)CCCCCC(=O)Nc3ccccc3N)ccc2O1`, the relative growth is inactive: 0.992.
As for `Cc1ccc(S(=O)(=O)C[C@H](C)N2CCOCC2)c(S(=O)(=O)C[C@@H](C)N2CCOCC2)c1`, the relative growth was inactive: 1.01.
For `NC1CCN(C(=O)c2c[nH]c3ccccc23)CC1`, the relative growth was inactive: 1.01.
`C[C@@H]1CCCCO[C@@H](CN(C)C(=O)Cc2ccccc2)[C@@H](C)CN([C@@H](C)CO)C(=O)c2cc(NS(=O)(=O)c3ccc(F)cc3)ccc2O1`: the relative growth is inactive: 0.943.
On to `Cc1noc(C)c1NC(=O)Nc1ccc2c(c1)C(=O)N([C@H](C)CO)C[C@@H](C)[C@@H](CN(C)C(=O)NC(C)C)O2`, for which the relative growth was inactive: 0.962.
Regarding `O=C(C[C@H]1C=C[C@H](NC(=O)c2ccncc2)[C@@H](CO)O1)NCc1ccncn1`, the relative growth was inactive: 0.973.
As for `CNC(=O)CN1CCOC[C@]2(CCCN(C(C)=O)C2)C1`, the relative growth is inactive: 1.
Take `CN(C)/C=N/C(=S)N1CCOCC1`: the relative growth was inactive: 1.01.
With `Cc1noc(C)c1NC(=O)Nc1ccc2c(c1)C(=O)N([C@@H](C)CO)C[C@H](C)[C@H](CN(C)Cc1ccncc1)OCCCC[C@@H](C)O2`, the relative growth was inactive: 0.987.
On to `COc1cccc(NC(=O)N(C)C[C@@H]2Oc3ncc(Br)cc3C(=O)N([C@@H](C)CO)C[C@H]2C)c1`, for which the relative growth is inactive: 0.994.
The same measure for `CC(C)C#Cc1ccc2c(c1)O[C@@H](CN(C)S(=O)(=O)c1cn(C)cn1)[C@@H](C)CN([C@H](C)CO)S2(=O)=O`: inactive: 0.971; for `Cc1ccc(S(=O)(=O)N[C@@H]2CC[C@@H](CC(=O)NCc3ccc(Cl)c(Cl)c3)O[C@H]2CO)cc1`: inactive: 1.01.
The same measure for `COc1ccc(NC(=O)Nc2ccc3c(c2)C(=O)N([C@H](C)CO)C[C@@H](C)[C@@H](CN(C)C(=O)CCC(F)(F)F)OCCCC[C@H](C)O3)cc1`: inactive: 0.996; for `CN(C)CC#Cc1ccc([C@H]2[C@H](CO)N3CCCCN(C(=O)CN(C)C)C[C@@H]23)cc1`: inactive: 1.05.
With `CC(C)NC(=O)N(C)C[C@@H]1Oc2ccc(NC(=O)C3CCCCC3)cc2C(=O)N([C@@H](C)CO)C[C@@H]1C`, the relative growth was inactive: 0.916.
Consider `C[C@@H]1CCCCO[C@@H](CN(C)Cc2ccncc2)[C@@H](C)CN([C@H](C)CO)C(=O)c2cc(NC(=O)NC3CCCCC3)ccc2O1`, for which the relative growth was inactive: 0.997.
On to `COc1ccc(NC(=O)Nc2ccc3c(c2)C(=O)N([C@H](C)CO)C[C@@H](C)[C@@H](CN(C)Cc2ccc(C(=O)Nc4ccccc4N)cc2)O3)cc1`, for which the relative growth was inactive: 1.
As for `COc1ccc(-c2cnc3c(c2)C(=O)N([C@@H](C)CO)C[C@H](C)[C@H](CN(C)C(=O)Cc2ccccn2)O3)cc1`, the relative growth was inactive: 0.982.
With `C[C@H]1CN([C@@H](C)CO)C(=O)c2cc(NS(=O)(=O)c3cccs3)ccc2O[C@H]1CN(C)Cc1ccc(-c2ccccc2)cc1`, the relative growth is inactive: 0.987.
For `C[C@@H]1CN([C@H](C)CO)C(=O)c2cc(NC(=O)Cc3ccccc3)ccc2O[C@@H](C)CCCCO[C@H]1CN(C)C(=O)Nc1ccccc1`, the relative growth is inactive: 1.
On to `C[C@@H]1CCCCO[C@@H](CN(C)S(=O)(=O)c2ccccc2)[C@H](C)CN([C@@H](C)CO)C(=O)c2cc(NC(=O)Nc3cccc4ccccc34)ccc2O1`, for which the relative growth is inactive: 1.02.
The same measure for `Cc1noc(C)c1S(=O)(=O)N(C)C[C@H]1Oc2ccc(NC(=O)NC(C)C)cc2CC(=O)N([C@@H](C)CO)C[C@H]1C`: inactive: 0.993.
`C=CCNc1nc(C)nc(OC)n1`: the relative growth is inactive: 1.01.
The same measure for `C[C@@H]1CN([C@H](C)CO)C(=O)c2cccc(NC(=O)c3ccncc3)c2O[C@@H]1CN(C)Cc1ccc(Oc2ccccc2)cc1`: inactive: 0.988.
The same measure for `CCOC(=O)C(CCc1ccccc1)NC1CCc2ccccc2N(CC(=O)O)C1=O.Cl` (configuration not stated): inactive: 1.04; for `Cc1sccc1-c1csc(N)n1`: inactive: 0.996; for `C[C@@H]1CCCCO[C@@H](CN(C)C(=O)Nc2ccc(C(F)(F)F)cc2)[C@H](C)CN([C@@H](C)CO)C(=O)c2cc(NS(=O)(=O)c3cccs3)ccc2O1`: inactive: 1.
The same measure for `C[C@@H]1CN([C@@H](C)CO)C(=O)Cc2cc(NC(=O)Nc3cccc4ccccc34)ccc2O[C@@H]1CN(C)C(=O)Nc1ccc(F)cc1`: inactive: 0.993.
With `Cc1ccc(S[C@]2(C(=O)NCC(C)C)CC(=O)N(Cc3ccccc3C(F)(F)F)[C@@H]2c2ccc(CO)cc2)cc1`, the relative growth was inactive: 0.988.
Regarding `C[C@@H]1CCCCO[C@H](CN(C)Cc2ccccc2)[C@H](C)CN([C@@H](C)CO)C(=O)c2cc(NS(=O)(=O)c3ccc(Cl)cc3)ccc2O1`, the relative growth was inactive: 0.95.
The same measure for `CC(C)NC(=O)Nc1ccc2c(c1)C(=O)N([C@H](C)CO)C[C@H](C)[C@H](CN(C)S(=O)(=O)c1cn(C)cn1)O2`: inactive: 0.892.
The same measure for `C[C@H]1CCCCO[C@@H](CN(C)Cc2ccncc2)[C@@H](C)CN([C@@H](C)CO)C(=O)c2cc(NC(=O)NC3CCCCC3)ccc2O1`: inactive: 1.01; for `CC(C)NC(=O)N(C)C[C@H]1Oc2ccc(NC(=O)NC3CCCCC3)cc2CC(=O)N([C@@H](C)CO)C[C@H]1C`: inactive: 1; for `COCC(=O)N[C@H]1C=C[C@H](CC(=O)N2CCCCC2)O[C@@H]1CO`: inactive: 0.885.
Consider `C[C@H]1CN([C@@H](C)CO)C(=O)c2cc(-c3cccc(C(=O)N(C)C)c3)cnc2O[C@@H]1CN(C)C(=O)Cc1ccccn1`, for which the relative growth was inactive: 1.
With `O=C(C[C@@H]1CC[C@@H]2[C@H](COC[C@@H](O)CN2C(=O)c2ccc3c(c2)OCO3)O1)NCCN1CCCCC1`, the relative growth is inactive: 1.01.
`COc1ccc([C@@H](N)c2ccccc2)cc1`: the relative growth is inactive: 0.977.
On to `C[C@@H]1CN([C@@H](C)CO)C(=O)CCCn2nncc2CO[C@@H]1CN(C)C(=O)Nc1ccnc(N2CCOCC2)c1`, for which the relative growth was inactive: 0.967.
With `C[C@H](CO)N1C[C@H](C)[C@H](CN(C)C(=O)Nc2ccccc2)Oc2c(NC(=O)c3cnccn3)cccc2C1=O`, the relative growth is inactive: 1.02.
For the molecule `C[C@H]1CN([C@@H](C)CO)C(=O)c2c(c3ccccc3n2C)-c2ccccc2CO[C@H]1CN(C)Cc1ccc(O)cc1`, the relative growth was inactive: 0.997.
The same measure for `O=S1(=O)NCC2(COC2)O1`: inactive: 1.01.
Regarding `Cc1ccc(S(=O)(=O)N(C)C[C@@H]2Oc3c(NS(=O)(=O)c4ccccc4)cccc3C(=O)N([C@H](C)CO)C[C@@H]2C)cc1`, the relative growth is inactive: 1.01.
As for `COc1ccc(S(=O)(=O)Nc2ccc3c(c2)C(=O)N([C@@H](C)CO)C[C@H](C)[C@H](CN(C)C(=O)Nc2cccc4ccccc24)OCCCC[C@@H](C)O3)cc1`, the relative growth was inactive: 1.02.
The result for `C[C@H]1CN([C@@H](C)CO)S(=O)(=O)c2ccc(C#Cc3cccnc3)cc2O[C@@H]1CN(C)C(=O)CN(C)C` reads inactive: 0.99; that for `O=C(C[C@@H]1CC[C@@H]2[C@H](COC[C@H](O)CN2C(=O)Nc2cccc(Cl)c2)O1)NCc1ccccc1F`, inactive: 1; that for `CCOC(=O)CC1(C)NNC(=S)NN1`, inactive: 1.03.
Turning to `C[C@@H]1CN([C@H](C)CO)C(=O)c2c(c3ccccc3n2C)-c2ccccc2CO[C@@H]1CN(C)C(=O)Nc1ccc(-c2ccccc2)cc1`, the relative growth was inactive: 1.03.
The result for `C[C@@H]1CN([C@H](C)CO)C(=O)c2cccc(NS(C)(=O)=O)c2O[C@H]1CN(C)C(=O)Nc1ccc(C(F)(F)F)cc1` reads inactive: 0.982; that for `COc1ccc(NC(=O)N[C@@H]2CC[C@@H](CCNC(=O)CN3CCOCC3)O[C@H]2CO)cc1`, inactive: 0.975.
Turning to `Cc1noc(C)c1S(=O)(=O)Nc1ccc2c(c1)CC(=O)N([C@@H](C)CO)C[C@H](C)[C@@H](CN(C)Cc1ccc(Oc3ccccc3)cc1)O2`, the relative growth is inactive: 0.999.
With `Cc1ccc(S(=O)(=O)N(C)C[C@H]2Oc3ccc(NC(=O)CCN4CCOCC4)cc3C(=O)N([C@@H](C)CO)C[C@@H]2C)cc1`, the relative growth was inactive: 1.02.
Turning to `C[C@@H]1CN([C@@H](C)CO)C(=O)c2cccc(NC(=O)Nc3ccc(C(F)(F)F)cc3)c2O[C@H]1CN(C)Cc1ccc(C(=O)O)cc1`, the relative growth is inactive: 0.973.
